# Measurements as given in the supplement of paper PMC8728848.
# The list shows a part of the results.
# B1: B1257 (Bifidobacterium sp) (protein)
# chain: MKKSIRLVAAIAALAMTAGISACGSSTNGNQAKSDVTAQDVETALTDTSKNVELTVWAYSAKQMEPTVKAFEKKYPHIKINFVNTGAAGDHFTKFQNVVQAQKDIPDVVQMGANKFQQFAVSGALLNFANDSIEKAWSKLYTKTAWAQVHYAGGLYGAPQDATPLANYVRKDILDEHNLQVPESWEDIYNEGIKLHKEDSNKYMGILGSDISFFTNLYRSVGARLWKVNSVDDVELTMNSGKAKEFTEFLQKCLKDGVLEGGTVFTDEFNRSINDGRYATFINENWMGNTYKEQNPSLKGKMVVAAPPSWKGQPYQSSSVGSMMSVSAACPKEKQAAALAFINWLDSDKDAIQSWQDTNNGNFFMAASVYQDDENQRNKKETDGYYANDDVNAVYFDSMDKVNTDWEYLPFMSQVEVVFNDVIVPQMNENGDLVGAMAKAQQELKTYAKDNGFKVTTDAD
# Experiments:
# Assay in all cases: glycan array binding signal (z-score within array); higher = stronger binding
# Conditions in all cases: glycan notation: IUPAC condensed, linker removed
# [1] = molecular target: Fuc(a1-2)Gal6S(b1-3)GlcNAc6S
# Outline: (§1)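 Columns mapping to the same glycan were averaged after glycan names were converted to IUPAC-condensed notation. The data come from 3228 arrays in the Consortium for Functional Glycomics database, limited to those with an available protein sequence. Binding is reported as a within-array Z-score averaged across arrays of one protein sequence and across linkers.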
# [2] = molecular target: Fuc(a1-2)Gal6S(b1-4)Glc
# Outline: as §1
# [3] = molecular target: Fuc(a1-2)Gal6S(b1-4)Glc6S
# Outline: as §1
# [4] = molecular target: Fuc(a1-2)[Gal(a1-3)]Gal
# Outline: as §1
# [5] = molecular target: Fuc(a1-2)[Gal(a1-3)]Gal(b1-3)GalNAc
# Outline: as §1
# [6] = molecular target: Fuc(a1-2)[Gal(a1-3)]Gal(b1-3)GalNAc(b1-3)Gal(a1-4)Gal(b1-4)Glc
# Outline: as §1
# [7] = molecular target: Fuc(a1-2)[Gal(a1-3)]Gal(b1-3)GlcNAc
# Outline: as §1
# [8] = molecular target: Fuc(a1-2)[Gal(a1-3)]Gal(b1-3)GlcNAc(b1-2)Man(a1-3)[Fuc(a1-2)[Gal(a1-3)]Gal(b1-3)GlcNAc(b1-2)Man(a1-6)]Man(b1-4)GlcNAc(b1-4)GlcNAc
# Outline: as §1
# [9] = molecular target: Fuc(a1-2)[Gal(a1-3)]Gal(b1-3)GlcNAc(b1-2)Man(a1-3)[Fuc(a1-2)[Gal(a1-3)]Gal(b1-3)GlcNAc(b1-2)Man(a1-6)]Man(b1-4)GlcNAc(b1-4)[Fuc(a1-6)]GlcNAc
# Outline: as §1
# [10] = molecular target: Fuc(a1-2)[Gal(a1-3)]Gal(b1-3)GlcNAc(b1-3)GalNAc
# Outline: as §1
# [11] = molecular target: Fuc(a1-2)[Gal(a1-3)]Gal(b1-3)GlcNAc(b1-6)GalNAc
# Outline: as §1
# [12] = molecular target: Fuc(a1-2)[Gal(a1-3)]Gal(b1-4)Glc
# Outline: as §1
# [13] = molecular target: Fuc(a1-2)[Gal(a1-3)]Gal(b1-4)GlcNAc
# Outline: as §1
# [14] = molecular target: Fuc(a1-2)[Gal(a1-3)]Gal(b1-4)GlcNAc(b1-2)Man
# Outline: as §1
# [15] = molecular target: Fuc(a1-2)[Gal(a1-3)]Gal(b1-4)GlcNAc(b1-2)Man(a1-3)[Fuc(a1-2)[Gal(a1-3)]Gal(b1-4)GlcNAc(b1-2)Man(a1-6)]Man(b1-4)GlcNAc(b1-4)GlcNAc
# Outline: as §1
# [16] = molecular target: Fuc(a1-2)[Gal(a1-3)]Gal(b1-4)GlcNAc(b1-2)Man(a1-3)[Fuc(a1-2)[Gal(a1-3)]Gal(b1-4)GlcNAc(b1-2)Man(a1-6)]Man(b1-4)GlcNAc(b1-4)[Fuc(a1-6)]GlcNAc
# Outline: as §1
# [17] = molecular target: Fuc(a1-2)[Gal(a1-3)]Gal(b1-4)GlcNAc(b1-3)GalNAc
# Outline: as §1
# [18] = molecular target: Fuc(a1-2)[Gal(a1-3)]Gal(b1-4)GlcNAc(b1-3)[Fuc(a1-2)[Gal(a1-3)]Gal(b1-4)GlcNAc(b1-6)]GalNAc
# Outline: as §1
# [19] = molecular target: Fuc(a1-2)[Gal(a1-3)]Gal(b1-4)GlcNAc(b1-6)GalNAc
# Outline: as §1
# [20] = molecular target: Fuc(a1-2)[Gal(a1-3)]Gal(b1-4)[Fuc(a1-3)]Glc
# Outline: as §1
# [21] = molecular target: Fuc(a1-2)[Gal(a1-3)]Gal(b1-4)[Fuc(a1-3)]GlcNAc
# Outline: as §1
# [22] = molecular target: Fuc(a1-2)[Gal(a1-3)]Gal(b1-4)[Fuc(a1-3)]GlcNAc(b1-3)GalNAc
# Outline: as §1
# [23] = molecular target: Fuc(a1-2)[Gal(a1-4)]Gal(b1-4)GlcNAc
# Outline: as §1
# [24] = molecular target: Fuc(a1-2)[GalNAc(a1-3)]Gal
# Outline: as §1
# [25] = molecular target: Fuc(a1-2)[GalNAc(a1-3)]Gal(b1-3)GalNAc(a1-3)[Fuc(a1-2)]Gal(b1-4)GlcNAc
# Outline: as §1
# [26] = molecular target: Fuc(a1-2)[GalNAc(a1-3)]Gal(b1-3)GalNAc(b1-3)Gal(a1-4)Gal(b1-4)Glc
# Outline: as §1
# [27] = molecular target: Fuc(a1-2)[GalNAc(a1-3)]Gal(b1-3)GlcNAc
# Outline: as §1
# [28] = molecular target: Fuc(a1-2)[GalNAc(a1-3)]Gal(b1-3)GlcNAc(b1-2)Man(a1-3)[Fuc(a1-2)[GalNAc(a1-3)]Gal(b1-3)GlcNAc(b1-2)Man(a1-6)]Man(b1-4)GlcNAc(b1-4)GlcNAc
# Outline: as §1
# [29] = molecular target: Fuc(a1-2)[GalNAc(a1-3)]Gal(b1-3)GlcNAc(b1-2)Man(a1-3)[Fuc(a1-2)[GalNAc(a1-3)]Gal(b1-3)GlcNAc(b1-2)Man(a1-6)]Man(b1-4)GlcNAc(b1-4)[Fuc(a1-6)]GlcNAc
# Outline: as §1
# [30] = molecular target: Fuc(a1-2)[GalNAc(a1-3)]Gal(b1-3)GlcNAc(b1-3)GalNAc
# Outline: as §1
# [31] = molecular target: Fuc(a1-2)[GalNAc(a1-3)]Gal(b1-3)GlcNAc(b1-6)GalNAc
# Outline: as §1
# [32] = molecular target: Fuc(a1-2)[GalNAc(a1-3)]Gal(b1-4)Glc
# Outline: as §1
# [33] = molecular target: Fuc(a1-2)[GalNAc(a1-3)]Gal(b1-4)GlcNAc
# Outline: as §1
# [34] = molecular target: Fuc(a1-2)[GalNAc(a1-3)]Gal(b1-4)GlcNAc(b1-2)Man
# Outline: as §1
# [35] = molecular target: Fuc(a1-2)[GalNAc(a1-3)]Gal(b1-4)GlcNAc(b1-2)Man(a1-3)[Fuc(a1-2)[GalNAc(a1-3)]Gal(b1-4)GlcNAc(b1-2)Man(a1-6)]Man(b1-4)GlcNAc(b1-4)GlcNAc
# Outline: as §1
# [36] = molecular target: Fuc(a1-2)[GalNAc(a1-3)]Gal(b1-4)GlcNAc(b1-2)Man(a1-3)[Fuc(a1-2)[GalNAc(a1-3)]Gal(b1-4)GlcNAc(b1-2)Man(a1-6)]Man(b1-4)GlcNAc(b1-4)[Fuc(a1-6)]GlcNAc
# Outline: as §1
# [37] = molecular target: Fuc(a1-2)[GalNAc(a1-3)]Gal(b1-4)GlcNAc(b1-3)Gal(b1-4)GlcNAc
# Outline: as §1
# [38] = molecular target: Fuc(a1-2)[GalNAc(a1-3)]Gal(b1-4)GlcNAc(b1-3)Gal(b1-4)GlcNAc(b1-3)Gal(b1-4)GlcNAc
# Outline: as §1
# [39] = molecular target: Fuc(a1-2)[GalNAc(a1-3)]Gal(b1-4)GlcNAc(b1-3)GalNAc
# Outline: as §1
# [40] = molecular target: Fuc(a1-2)[GalNAc(a1-3)]Gal(b1-4)GlcNAc(b1-3)[Fuc(a1-2)[GalNAc(a1-3)]Gal(b1-4)GlcNAc(b1-6)]GalNAc
# Outline: as §1
# [41] = molecular target: Fuc(a1-2)[GalNAc(a1-3)]Gal(b1-4)GlcNAc(b1-6)GalNAc
# Outline: as §1
# [42] = molecular target: Fuc(a1-2)[GalNAc(a1-3)]Gal(b1-4)[Fuc(a1-3)]GlcNAc
# Outline: as §1
# [43] = molecular target: Fuc(a1-2)[GalNAc(a1-3)]Gal(b1-4)[Fuc(a1-3)]GlcNAc(b1-3)GalNAc
# Outline: as §1
# [44] = molecular target: Fuc(a1-2)[GalNAc(a1-4)]Gal(b1-4)GlcNAc
# Outline: as §1
# [45] = molecular target: Fuc(a1-2)[GalNAc(b1-3)]Gal
# Outline: as §1
binder,measurement,setting,value
B1,glycan array binding signal (z-score),[1],0.073
same,glycan array binding signal (z-score),[2],0.068
same,glycan array binding signal (z-score),[3],-0.07
same,glycan array binding signal (z-score),[4],-0.116
same,glycan array binding signal (z-score),[5],0.034
same,glycan array binding signal (z-score),[6],-0.091
same,glycan array binding signal (z-score),[7],-0.109
same,glycan array binding signal (z-score),[8],-0.062
same,glycan array binding signal (z-score),[9],-0.149
same,glycan array binding signal (z-score),[10],-0.1
same,glycan array binding signal (z-score),[11],0.048
same,glycan array binding signal (z-score),[12],-0.142
same,glycan array binding signal (z-score),[13],-0.093
same,glycan array binding signal (z-score),[14],0.231
same,glycan array binding signal (z-score),[15],-0.014
same,glycan array binding signal (z-score),[16],-0.043
same,glycan array binding signal (z-score),[17],-0.026
same,glycan array binding signal (z-score),[18],0.214
same,glycan array binding signal (z-score),[19],-0.096
same,glycan array binding signal (z-score),[20],-0.192
same,glycan array binding signal (z-score),[21],-0.069
same,glycan array binding signal (z-score),[22],0.083
same,glycan array binding signal (z-score),[23],-0.086
same,glycan array binding signal (z-score),[24],-0.138
same,glycan array binding signal (z-score),[25],-0.153
same,glycan array binding signal (z-score),[26],-0.087
same,glycan array binding signal (z-score),[27],-0.13
same,glycan array binding signal (z-score),[28],-0.078
same,glycan array binding signal (z-score),[29],-0.046
same,glycan array binding signal (z-score),[30],0.025
same,glycan array binding signal (z-score),[31],-0.144
same,glycan array binding signal (z-score),[32],-0.044
same,glycan array binding signal (z-score),[33],-0.149
same,glycan array binding signal (z-score),[34],-0.093
same,glycan array binding signal (z-score),[35],0.131
same,glycan array binding signal (z-score),[36],0.02
same,glycan array binding signal (z-score),[37],-0.105
same,glycan array binding signal (z-score),[38],-0.032
same,glycan array binding signal (z-score),[39],-0.017
same,glycan array binding signal (z-score),[40],-0.037
same,glycan array binding signal (z-score),[41],-0.097
same,glycan array binding signal (z-score),[42],-0.026
same,glycan array binding signal (z-score),[43],0.001
same,glycan array binding signal (z-score),[44],-0.147
same,glycan array binding signal (z-score),[45],-0.058
